Test results reported in PubChem BioAssay AID1956 (SRMLSC, 2009).
This is one part of the list. The main result of the screen is listed elsewhere. These columns were measured beside it and carry no call.

Assay: compounds boosting herpes simplex virus growth – fold increase, host cell viability (AID 1956); further: tested in PC3 cells
Details: HSV replication augmentation in cells; fold increase: measured here: primary screen fold increase 10 uM, at 10 µM, stronger effect = higher value; viability: measured here: host cell viability series, at 25 µM, stronger effect = lower value
With COc1ccccc1NS(=O)(=O)c1cc([N+](=O)[O-])ccc1N/N=C/c1sc(N2CCOCC2)nc1-c1ccccc1 the fold increase was 2.73 and the viability was 82.5%.
For CC(=O)c1ccc(NC(=O)c2ccc3nc(-c4ccco4)c(-c4ccco4)nc3c2)cc1, the fold increase was 1.28.
Work on Cc1ccc(-c2ccc(SCC(=O)N3CCN(c4ccccc4)CC3)nn2)cc1 yielded a fold increase of 1.42 and a viability of 92.2%.
CCC(=O)Oc1ccc2c(c1)O/C(=C\c1ccco1)C2=O showed a fold increase of 4.68 and a viability of 99.8%.
Work on CSc1nsc(/C=C/Nc2ccc(O)cc2C)c1C#N yielded a fold increase of 1.96 and a viability of 84.3%.
For Cn1cc(Br)c(NC(=O)/C=C/C(=O)O)n1, the fold increase was 1.38 and the viability was 94.8%.
CCOC(=O)c1c(NC(=O)c2cc3n(n2)C(C(F)(F)F)CC(c2cccs2)N3)sc(C)c1C (centres undefined) showed a fold increase of 1.45 and a viability of 35.8%.
In the case of Cc1ccc(S(=O)(=O)Nc2cc3c(C(=O)Nc4ccccc4)c(C)oc3c3ccccc23)cc1, the fold increase was 1.46 and the viability was 97.4%.
Molecule COc1cc(/C=C(\C#N)c2nc3c(s2)CC(C)CC3)ccc1O (centres undefined) has a fold increase of 3.83 and a viability of 95.4%.
For Cn1c(=O)c(Nc2ccc(O)cc2)c2c3c(cccc31)C(=O)c1ccccc1-2, the fold increase was 1.37.
In the case of COc1ccc(OC)c(S(=O)(=O)Nc2ccc(O)c(Sc3ncn[nH]3)c2)c1, the fold increase was 1.32 and the viability was 99%.
CCOC(=O)c1c(=O)n(O)c2ccc(OC)cc2[n+]1[O-] gave a fold increase of 1.3.
N#C/C(=C\c1ccco1)C(=O)Nc1cccc2ncccc12 showed a fold increase of 1.83 and a viability of 96.6%.
N#CC(C#N)=C1C=CC=CN1/C(=C\c1ccco1)C(=O)c1ccc(-c2ccccc2)cc1 showed a fold increase of 1.52 and a viability of 29.4%.
With CCOC(=O)c1c(CC(C)C)csc1/N=C/C1C(=O)CC(C)(C)CC1=O the fold increase was 1.44 and the viability was 97.4%.
In the case of CCOC(=O)c1nn(-c2ccc(Cl)cc2Cl)c(=N)c(C#N)c1C, the fold increase was 1.42.
For Cc1occc1C(=O)N/N=C/C1=C(N2CCOCC2)C(=C\c2ccc(Cl)cc2)/CC1, the fold increase was 1.36 and the viability was 94.5%.
Molecule CCOC(=O)C1=C(N)N2C(=O)C(C)SC2=C(C(=O)OC)C1c1cccc(OC)c1 (centres undefined) has a fold increase of 1.37 and a viability of 97.7%.
In the case of C/C(=C/C(=O)NCc1ccccc1)C(=O)O, the fold increase was 1.4 and the viability was 102%.
CC1=CC(C)(C)N2C(=O)C(=O)c3cc(OC(=O)c4ccco4)cc1c32 gave a fold increase of 2.24 and a viability of 44.1%.
In the case of CCc1nc2oc3cc(OC)ccc3c(=O)c2c(=O)n1Cc1ccco1, the fold increase was 1.36.
For Cc1ccc(OC(C)C(=O)N(Cc2cccs2)C2CCS(=O)(=O)C2)cc1C (centres undefined), the fold increase was 1.35 and the viability was 96.7%.
Work on CN1CCc2c(sc(/N=C/c3c[nH]c4ccccc34)c2C#N)C1 yielded a fold increase of 2.01 and a viability of 100%.
For COc1cccc(C(=O)NCc2ccc3c(c2)cc(C)n3C)c1, the fold increase was 1.36 and the viability was 94.3%.
CCOC(=O)/C(C#N)=C\c1ccc(N2CCN(C/C=C/c3ccccc3)CC2)cc1 gave a fold increase of 1.35.
Work on NC(=O)CN1CCN(C(=O)Nc2ccccc2)CC1 yielded a fold increase of 1.33 and a viability of 99.5%.
In the case of Cc1cc(N2CCCC2)ccc1/C=C1\NC(=S)N(C)C1=O, the fold increase was 4.44 and the viability was 84.5%.
Work on NC(=O)c1c(Nc2nc3c(F)cccc3s2)sc2c1CCCC2 yielded a fold increase of 4.35 and a viability of 101%.
In the case of O=C(OCCN1C(=O)c2cccc3c(N4CCOCC4)ccc(c23)C1=O)c1ccc(Cl)cc1, the fold increase was 8.34.
CCONC(=O)Nc1ccccc1[N+](=O)[O-] gave a fold increase of 1.32.
With CN1CCS/C1=C/C=C1/SC(=S)N(Cc2ccccc2)C1=O the fold increase was 4.62 and the viability was 73.1%.
O=C(O)/C(=C\C(=O)c1ccccc1)Nc1ccccc1 showed a fold increase of 1.37 and a viability of 96.8%.
Work on O=C(Cn1cc2c(n1)CCCCC2)NCc1ccccn1 yielded a fold increase of 1.33.
Work on O=C(Nc1nc(-c2cccs2)cs1)c1cccc(S(=O)(=O)N2CCCCCC2)c1 yielded a fold increase of 1.12.
Work on COc1ccc(/C=C2\SC(=O)NC2=S)cc1OC yielded a fold increase of 4.99.
For C/C(Cc1ccccc1)=N\NC(=O)CNC(=O)c1ccc2c(c1)OCCO2, the fold increase was 1.37 and the viability was 103%.
Molecule c1ccc(Nc2ccc3c4c(cccc24)CC3)cc1 has a fold increase of 6.14 and a viability of 93%.
For CCOC(=O)C1CCCN(c2nc3ccccc3nc2C(C#N)C(=O)OC(C)C)C1 (centres undefined), the fold increase was 1.35.
CC(C)Oc1ccc(Cn2c(-c3ccco3)n[nH]c2=S)cc1 gave a fold increase of 1.09.
With CCN1/C(=C/C=C/c2oc3ccc(-c4ccccc4)cc3[n+]2CC)Oc2ccc(-c3ccccc3)cc21 the fold increase was 9.16.
For CN(C)c1ccc(/C=C/C(=O)c2ccccc2O)cc1, the fold increase was 1.96 and the viability was 99.5%.
In the case of CCOc1cccc(C2C(C(=O)c3ccc(C)o3)=C(O)C(=O)N2c2nccs2)c1 (centres undefined), the fold increase was 1.15.
For COc1ccc(/C=c2\s/c(=C/C(=O)c3ccc(C)cc3)[nH]c2=O)cc1OC, the fold increase was 2.82.
In the case of O=C(CCc1nnc(C2CCCCC2)o1)N1CCN(Cc2ccccc2)CC1, the fold increase was 1.32.
Molecule Cc1cc(Oc2ccc(N)cn2)ccc1Cl has a fold increase of 1.49 and a viability of 96.6%.
O=C(Oc1ccc2c(c1)O/C(=C\c1ccncc1)C2=O)c1ccccc1 showed a fold increase of 1.49 and a viability of 87.9%.
For Cc1nc(-c2ccccc2)nc2sc(C(=O)c3ccc(F)cc3)c(N)c12, the fold increase was 1.46 and the viability was 83.6%.
Cc1nn(C)c(C)c1NC(=O)/C(C#N)=C\N(C)C showed a fold increase of 1.4 and a viability of 99.5%.
With CN1CCN(C2=CC3=CC(=C(C#N)C#N)CCC3CC2)CC1 (centres undefined) the fold increase was 9.42 and the viability was 92.3%.
For N#CC1CC(c2ccc([N+](=O)[O-])cc2)=NN1c1ccc([N+](=O)[O-])cc1 (centres undefined), the fold increase was 1.58.
Work on Cc1cc(/C=c2\sc3nc4ccccc4n3c2=O)c(C)n1-c1ccc(C(=O)O)cc1 yielded a fold increase of 1.34 and a viability of 97.6%.
In the case of Cc1cc(C)n(-c2ncnc3ccccc23)n1, the fold increase was 1.49 and the viability was 97.5%.
CC(=O)c1cc(CN2CCN(C3CCN(C(C)C)CC3)C(CCO)C2)cs1 (centres undefined) showed a fold increase of 1.42 and a viability of 81.8%.
With N#Cc1c(-c2ccccc2)c(-c2ccccc2)n(Cc2ccco2)c1NC(=O)c1cccs1 the fold increase was 1.16.
For O=C(CCNC(=O)c1ccc([N+](=O)[O-])cc1)Nc1ccc(N2CCOCC2)cc1N1CCOCC1, the fold increase was 1.56 and the viability was 99.5%.
Cc1cn(C2OC(COC(=O)c3ccccc3)C(O)C2Cl)c(=O)[nH]c1=O (centres undefined) showed a fold increase of 1.39 and a viability of 91.5%.
Work on CCOC(=O)c1c(N)sc(=S)c2c1CCC2 yielded a fold increase of 1.27.
Molecule CCOC(=O)CC1C(=O)NCCN1c1nc2c(C)cccn2c(=O)c1/C=C1\SC(=S)N(C(C)CC)C1=O (centres undefined) has a fold increase of 7.94.
For Nc1c(C(=O)c2ccccc2)sc2snc(SCC(=O)c3ccccc3)c12, the fold increase was 1.54 and the viability was 76.1%.
With CNC(=S)NNC(=O)c1oc2nc(-c3ccccc3)cc(-c3ccco3)c2c1N the fold increase was 1.94 and the viability was 98.5%.
C/C(=N\Nc1ccc([N+](=O)[O-])cc1)c1cc2ccccc2o1 showed a fold increase of 2.09.
O=C(O)CCC(=O)N1CCc2cc(S(=O)(=O)NCc3cccs3)ccc21 gave a fold increase of 1.32 and a viability of 99.1%.
With CCOc1ccc(NC(=O)/C(C#N)=C/c2ccc(N3CCCC3)c(C)c2)cc1 the fold increase was 2.93.
N#Cc1ccc(-c2cccnc2)nc1SCC(=O)c1ccccc1 showed a fold increase of 3.25 and a viability of 92.5%.
With COc1ccc(OC2C(=O)N(Cc3ccc(F)cc3)C2c2cc(OC)c(OC)c(OC)c2)cc1 (centres undefined) the fold increase was 1.33 and the viability was 104%.
COc1cc2c3nnc(-c4ccccc4)c-3cn(Cc3ccc(F)cc3)c2cc1OC showed a fold increase of 2.46 and a viability of 95.4%.
CCOC(=O)C1=C(N)n2c(s/c(=C\c3ccco3)c2=O)=C(C(=O)OC(C)C)C1c1ccco1 (centres undefined) showed a fold increase of 1.35 and a viability of 80.6%.
Molecule O=C(NCCc1ccccc1)C1CCN(c2ncccn2)CC1 has a fold increase of 1.35 and a viability of 98.8%.
Molecule Cc1ccc(C2NC(=O)c3c(sc4c3CCN(C)C4)N2)s1 (centres undefined) has a fold increase of 1.35 and a viability of 96.4%.
Cc1[nH]nc(NNC(=O)c2ccccc2)c1[N+](=O)[O-] showed a fold increase of 1.32.
With Nc1ccccc1Sc1ccc(C(=O)c2ccccc2C(=O)O)cc1[N+](=O)[O-] the fold increase was 1.4 and the viability was 100%.
Molecule COC(=O)c1sc(NC(=O)/C=C/c2ccc(C)o2)nc1C has a fold increase of 1.4 and a viability of 99.5%.
For COC(=O)CSc1nc(N)c2c3c(sc2n1)C(c1ccccc1)SC(c1ccccc1)C3 (centres undefined), the fold increase was 2.59.
With Cc1cccc2cc3c(N)c(C(=O)N4CCCc5ccccc54)sc3nc12 the fold increase was 2.12.
With CC1=CC(c2ccccc2)n2nc(NS(=O)(=O)c3ccc(C)cc3)nc2N1 (centres undefined) the fold increase was 1.35 and the viability was 94.8%.
Molecule Cc1cc(C(=O)NNC(=S)NC(C)c2ccccc2)c2ccccc2n1 (centres undefined) has a fold increase of 1.19.
For N#C/C(=C\c1ccc(-c2ccc(C(=O)O)cc2)o1)c1nc2ccccc2[nH]1, the fold increase was 9.08 and the viability was 98.5%.
Molecule Cc1cc(C)nc(NN2C(=O)/C(=C/c3ccc(O)cc3)SC2=S)n1 has a fold increase of 2.32 and a viability of 90.2%.
For O=C(C1=C(O)C(=O)N(c2nccs2)C1c1ccccc1)c1cc2ccccc2o1 (centres undefined), the fold increase was 2.24 and the viability was 103%.
Cc1ccc(Cc2cc(C)n[nH]c2=O)cc1 gave a fold increase of 1.55 and a viability of 102%.
With COc1cccc(C2=CC(c3cccs3)n3nnnc3N2)c1 (centres undefined) the fold increase was 3.45 and the viability was 47.7%.
In the case of CCOc1ccc(Br)cc1C1C(C(=O)OC)=C(N)Oc2cc(N(C)C)ccc21 (centres undefined), the fold increase was 1.2.
Molecule COc1ccccc1-c1nnn(CC#N)n1 has a fold increase of 1.34 and a viability of 96.5%.
CCN(CC)c1ccc(/C=C/C(=O)c2ccc(Br)cc2)cc1 gave a fold increase of 9.24 and a viability of 93.9%.
Work on O=C(N/N=C/c1sc(N2CCCCC2)nc1-c1cccs1)c1cccnc1 yielded a fold increase of 1.58.
O=C(COC(=O)CC1CC2CCC1C2)NC(=O)NC1CCCC1 (centres undefined) showed a fold increase of 1.36 and a viability of 104%.
Molecule NNC(=O)c1ccc(CSc2nc3ccccc3s2)cc1 has a fold increase of 1.35 and a viability of 101%.
For C=CCOn1c(=O)c(C)[n+]([O-])c2ccccc21, the fold increase was 1.66 and the viability was 99.9%.
Work on CN(C)c1ccc(C(=O)/C=C/c2ccco2)cc1 yielded a fold increase of 1.32.
With O=c1c[n+]([O-])c2ccccc2n1OCc1ccccn1 the fold increase was 1.22 and the viability was 96.8%.
CC(=O)c1cc(-c2ccccc2)[nH]c1N1CCCC1 showed a fold increase of 1.16.
In the case of Cc1ccc(-c2nnn(CC(=O)N(CC(=O)NC3CCCCC3)c3cnc4ccccc4c3)n2)o1, the fold increase was 1.32 and the viability was 99.8%.
For COCCN(C(=O)CN1CCCc2ccccc21)c1c(N)n(Cc2ccccc2)c(=O)[nH]c1=O, the fold increase was 3.03 and the viability was 98%.
Fc1ccccc1Cc1noc(CN2CCC(OCc3cccnc3)CC2)n1 showed a fold increase of 1.38 and a viability of 95.4%.
COC(=O)c1ccc(-c2ccco2)n1Cc1nc(-c2ccc(OC)c(OC)c2)oc1C gave a fold increase of 1.22.
In the case of CC(=O)Nc1ccc(SCC(=O)c2c(N)n(Cc3ccccc3)c(=O)n(C)c2=O)cc1, the fold increase was 1.32.
